The list shows a part of the results. This is a noisy data set.
Columns and labels:
Assay in all cases: mutation enrichment score (mutant vs wild-type peptide binding to bait); baits are purified protein domains named by gene / domain / UniProt id / residues; peptides come from disordered regions of human proteins; higher = mutation enhances binding relative to wild type
[1] = target: USP7_MATH-TRAF__Q93009_53_206; conditions: number of wild-type / mutant comparisons summed (bounds the score): 5; paper call: no_effect; wild-type window: …
Chain of USP7_MATH-TRAF__Q93009_53_206 (chain, as listed by the source): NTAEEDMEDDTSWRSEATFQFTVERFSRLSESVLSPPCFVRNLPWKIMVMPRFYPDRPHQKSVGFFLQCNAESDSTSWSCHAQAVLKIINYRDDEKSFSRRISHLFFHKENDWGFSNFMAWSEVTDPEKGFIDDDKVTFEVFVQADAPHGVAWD

TLN2_PTB__Q9Y4G6_312_417 = target: T1, TLN2_PTB__Q9Y4G6_312_417; conditions: wild-type window: …
T1 chain: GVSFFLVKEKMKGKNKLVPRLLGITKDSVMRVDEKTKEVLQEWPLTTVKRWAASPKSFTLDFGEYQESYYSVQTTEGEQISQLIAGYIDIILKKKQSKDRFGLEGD

TLN1_PTB__Q9Y490_309_401 = target: T2, TLN1_PTB__Q9Y490_309_401; conditions: wild-type window: …
T2 chain: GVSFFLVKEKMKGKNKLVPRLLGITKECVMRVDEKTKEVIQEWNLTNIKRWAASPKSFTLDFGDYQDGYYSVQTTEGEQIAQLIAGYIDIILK

TERF1_TRF__P54274_58_268 = target: T3, TERF1_TRF__P54274_58_268; conditions: number of wild-type / mutant comparisons summed (bounds the score): 12; paper call: no_effect; wild-type window: …
T3 chain: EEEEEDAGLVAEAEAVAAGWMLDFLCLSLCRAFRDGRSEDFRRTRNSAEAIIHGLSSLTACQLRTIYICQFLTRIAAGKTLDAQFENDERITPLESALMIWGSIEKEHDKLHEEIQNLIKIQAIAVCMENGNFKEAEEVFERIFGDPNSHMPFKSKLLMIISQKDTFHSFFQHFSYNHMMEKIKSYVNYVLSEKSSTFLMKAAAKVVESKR

[2] = number of wild-type / mutant comparisons summed (bounds the score): 12, paper call: no_effect
[3] = number of wild-type / mutant comparisons summed (bounds the score): 6, paper call: no_effect
[4] = number of wild-type / mutant comparisons summed (bounds the score): 12, paper call: diminished

For VEQTERSRKLAEQELIETSEPVQLLHSQNTSLINQKKKMDA [R1712P R1712P], which mutation enrichment score [1] is on record?
The mutation enrichment score was -2.

With VEQTERSRKLAEQELIETSEWVQLLHSQNTSLINQKKKMDA [R1712W R1712W] as the binder, how does the mutation enrichment score [1] read?
Its mutation enrichment score is -2.

How did the mutation enrichment score [1] turn out when VEQTERSRKLAEQELIETSEQVQLLHSQNTSLINQKKKMDA [R1712Q R1712Q] was run?
The mutation enrichment score was -2.

For SRLPPAREGHPVYPQLRPGYFPIPVLHEGAENRQVHPFHVY [I94F I94F], which mutation enrichment score [1] is on record?
The mutation enrichment score was -2.

Which mutation enrichment score (TLN2_PTB__Q9Y4G6_312_417; [2]) does the source give for VMADLGERMVRENLKVWIYPKGTRNDNGDLLPFKKGAFYLA [E172K E172K] here?
Its mutation enrichment score is -4.

Which mutation enrichment score [1] does the source give for WVVATKECKAELREHEHVVERISWAPESSYSSISEATGSET [C281R C281R] here?
The mutation enrichment score was 3.

With SVDYIRKLQREQQRAKELENGQKKLEHANRHLLLRIQELEM [R377G R377G] as the binder, how does the mutation enrichment score [1] read?
Its mutation enrichment score is -3.

For SPVPSPYAPQSPAGYMPYSHLSSYTTHPQMQQASVSSPIVA [P192L P192L], which mutation enrichment score [1] is on record?
The mutation enrichment score was 1.

EKRSLAFEEGSQSTTISSLSKKSKEETGISLQDLLLEIYRS [E1991K E1991K] was tested. Which mutation enrichment score [1] did it give?
Its mutation enrichment score is 3.

For VMGKASTPGAAAQIQEVKEQQISGLLVAVLVGLSILMEPIL [R760Q R760Q], which mutation enrichment score [1] is on record?
The mutation enrichment score was 3.

GAQVGGPISSGSSASSVTVTHSYRSVGGSGGGSFGDNLVTR [R624H R624H] was tested. Which mutation enrichment score [1] did it give?
Its mutation enrichment score is 3.

With PPPSQPDPEHLDKPKLKAGGAVESLRSSLSGQSSMSGQTVS [S507A S507A] as the binder, how does the mutation enrichment score [1] read?
The mutation enrichment score was -3.

TKVTLNTVGHHHRPPPHQASISGIQAELLTFPNSSPGLRRQ [V132I V132I] was tested. Which mutation enrichment score [1] did it give?
Its mutation enrichment score is 1.

With MIGLTLFVGVVIANFNENKGPALLTVDQRRWEDLKSRLKIA [T1165P T1165P] as the binder, how does the mutation enrichment score [1] read?
Its mutation enrichment score is 0.93.

How did the mutation enrichment score (TLN2_PTB__Q9Y4G6_312_417; [3]) turn out when AKLEAALGEAKKQLQDEMLRWVDAENRLQTMKEELDFQKNI [R190W R190W] was run?
Its mutation enrichment score is 1.

With MLAASFSIAVVAYAIAVSVGEVYATKYDYTIDGNQEFIAFG [K369E K369E] as the binder, how does the mutation enrichment score [1] read?
The mutation enrichment score was 4.

RLVVLAIANTMDLPERIMMNWVSSRLGLTRMCFQPYTYSQL [R666W R666W] was tested. Which mutation enrichment score (TLN1_PTB__Q9Y490_309_401; [3]) did it give?
The mutation enrichment score was 4.

How did the mutation enrichment score [1] turn out when IERSRKGSSGNASEVSVACLPERIHQMEENQHSTSEELQAT [T397P T397P] was run?
The mutation enrichment score was -2.7.

With LERTCELIYLTQPSSSISTETNSALVLKVSWITFLLAKGEV [I185T I185T] as the binder, how does the mutation enrichment score [1] read?
The mutation enrichment score was -3.

For DEATDGGGDNKEGEDSSVIHDDDKAIERLLDRNQDETEDTE [Y1249D Y1249D], which mutation enrichment score (TERF1_TRF__P54274_58_268) is on record?
Its mutation enrichment score is -3.

For LHHHHGSHCSSSGDPAEYNLHSRTVLCGTCGQPADKASASG [R582H R582H], which mutation enrichment score [1] is on record?
The mutation enrichment score was -2.9.

Which mutation enrichment score (TLN1_PTB__Q9Y490_309_401; [4]) does the source give for LVITYGLNAGAFYALSTLLNHMVIWHYPGEEVNAGRIGLTI [R333H R333H] here?
Its mutation enrichment score is -7.

What about the mutation enrichment score (TLN2_PTB__Q9Y4G6_312_417; [4]) of the same binder?
The mutation enrichment score was -8.

With LVITYGLNAGAFYALSTLLNLMVIWHYPGEEVNAGRIGLTI [R333L R333L] as the binder, how does the mutation enrichment score (TLN1_PTB__Q9Y490_309_401; [4]) read?
Its mutation enrichment score is -7.

What about the mutation enrichment score (TLN2_PTB__Q9Y4G6_312_417; [4]) of the same binder?
The mutation enrichment score was -8.

With LECMTWNQMNLGATLKGVAAASSSSVKWTEGQSNHSTGYES [G253A G253A] as the binder, how does the mutation enrichment score [1] read?
Its mutation enrichment score is -1.8.

AEQKESELIELRETIEMLKAHNSAAQAAIQGALNGPDHPPK [Q1640H Q1640H] was tested. Which mutation enrichment score [1] did it give?
The mutation enrichment score was -2.

With QSLTMTAEQKESELIELRETMEMLKAQNSAAQAAIQGALNG [I1634M I1634M] as the binder, how does the mutation enrichment score [1] read?
The mutation enrichment score was -2.

For AAVSHWQQQSYLDSGIHSGASTTAPSLSGKGNPEEEDVDTS [T40S T40S], which mutation enrichment score [1] is on record?
The mutation enrichment score was 2.9.

Which mutation enrichment score [1] does the source give for GLHTPASQATTLHVPSQDPASIQHLQPAHRLSASPTVSSSS [G574S G574S] here?
The mutation enrichment score was -2.

For QREQQRAKELENRQKKLEHADRHLLLRIQELEMQARAHGLS [N385D N385D], which mutation enrichment score [1] is on record?
Its mutation enrichment score is -3.

With QREQQRAKELENRQKKLEHASRHLLLRIQELEMQARAHGLS [N385S N385S] as the binder, how does the mutation enrichment score [1] read?
Its mutation enrichment score is -3.

For MEEVSAIHTSQEDRSSGSTTGLHCVTDERNALRRSSAAHTH [E911G E911G], which mutation enrichment score [1] is on record?
Its mutation enrichment score is -2.9.

How did the mutation enrichment score [1] turn out when DSTYRKFSTKVTLNTVGHHHCPPPHQASVSGIQAELLTFPN [R124C R124C] was run?
Its mutation enrichment score is 2.8.

EHLDKPKLKAGGSVESLRSSPSGQSSMSGQTVSTTDSSTSN [L515P L515P] was tested. Which mutation enrichment score [1] did it give?
The mutation enrichment score was -2.3.

How did the mutation enrichment score [1] turn out when AKEKESLQKDTADSSAAAAAGHSAQVGDPEMKNLPDTKAIT [E3413G E3413G] was run?
The mutation enrichment score was 2.

With LLPGLAGPSGEMVKSTTSLTLSSTSGSSDKVYAHQMVRTDS [S368L S368L] as the binder, how does the mutation enrichment score [1] read?
The mutation enrichment score was 3.

LHTKTYQASSQPGSTSKDLTTNNIPHLLSPKEAKSKTEFDF [N399T N399T] was tested. Which mutation enrichment score [1] did it give?
Its mutation enrichment score is 3.

QHPRTKSSRLQGSSLSSESAWHKAVEFSSGAKSPSKSGAQT [R1348W R1348W] was tested. Which mutation enrichment score [1] did it give?
The mutation enrichment score was 2.

How did the mutation enrichment score [1] turn out when ATQADLMELDMAMEPDRKAAGSHWQQQSYLDSGIHSGATTT [V22G V22G] was run?
Its mutation enrichment score is 2.

With AAASPSAASPPLATAAAHTAMASASTTAPASSPADSPRPQA [I345M I345M] as the binder, how does the mutation enrichment score [1] read?
The mutation enrichment score was 3.

For PSQPDPEHLDKPKLKAGGSVKSLRSSLSGQSSMSGQTVSTT [E509K E509K], which mutation enrichment score [1] is on record?
The mutation enrichment score was -3.

With GLSEEETPLVDCNNAPLPRAVPSTWIENKLYGMSDPNWPGE [L1052V L1052V] as the binder, how does the mutation enrichment score (TLN1_PTB__Q9Y490_309_401; [3]) read?
The mutation enrichment score was -5.6.

And the mutation enrichment score (TLN2_PTB__Q9Y4G6_312_417; [2])?
The mutation enrichment score was -4.9.

How did the mutation enrichment score [1] turn out when SELIELRETIEMLKAQNSAARAAIQGALNGPDHPPKDLRIR [Q1645R Q1645R] was run?
Its mutation enrichment score is -2.

How did the mutation enrichment score [1] turn out when MEPAAGSSMEPSADWLATAARRGRVEEVRALLEAGA [L16R L16R] was run?
The mutation enrichment score was 1.9.

For HLYQHPSSAVLYHTEVAYDPKGILGTINSIVMAFLGVQAGK [E499K E499K], which mutation enrichment score [1] is on record?
The mutation enrichment score was -3.

TETLALQRLGELGPPSPGLNLEQPQAARLSRTGLVEGLRKR [W3528L W3528L] was tested. Which mutation enrichment score (TLN1_PTB__Q9Y490_309_401; [3]) did it give?
The mutation enrichment score was 0.

Which mutation enrichment score [1] does the source give for SHHHEASSWADSSRHSLVGQRQSSGPRTSRPRGSSVSQDSD [G2228R G2228R] here?
The mutation enrichment score was -3.

Reference: the supplement of paper PMC11369174, “Proteome-scale characterisation of motif-based interactome rewiring by disease mutations” (Molecular Systems Biology, 2024)
